Source: PubChem BioAssay (NCI)
“And” between values parts separate entries of the source, which are not always exact repeats. Equal entries are not always repeated.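 All cell lines were grown in 96-well plates and treated with compound for 48 hours. GI50 marks 50% less growth. TGI: total growth inhibition.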

tested on: NCI-H322M lung; experiment: DTP human tumour cell line panel, 48 h

| Compound | TGI | GI50 [µM] |
| --- | --- | --- |
| O=c1[nH]n(Cc2ccccc2)c2ccc([N+](=O)[O-])cc12 | > 100 µM | – |
| c1ccc2c(c1)SCCCSCCSCCCS2 | > 100 µM | – |
| Cc1cc(OC(=O)NCn2cc(-c3ccccc3)nn2)ccc1Cl | > 100 µM | – |
| CN(C)CCCNc1ccc2nnn3c4ccc(O)cc4c(=O)c1c23 | 18.2 µM | – |
| CC(C)=CCC(OC(=O)C=C(C)C)C1=CC(=O)c2c(O)ccc(O)c2C1=O (configuration not stated) | 36.3 µM and 8.14 µM | 18.6 |
| COc1cc(NC(=O)CCSc2nc3ccc(C)cc3c(=O)n2Cc2ccccc2)cc(OC)c1OC | > 100 µM | 70.5 |
| COc1ccc2cc(CNCCCCCCNCc3ccc4cc(OC)ccc4c3)ccc2c1 | 1.97 µM | – |
| CN(Cc1cnc2nc(N)nc(N)c2n1)c1ccc(C(=O)NC(CO)CCCO)cc1 (configuration not stated) | > 100 µM | – |
| C=CCO/N=C(\OC(=O)c1ccc([N+](=O)[O-])cc1)c1ccccc1 | > 100 µM | – |
| Cc1c(-c2ccnc(N)n2)c2c(n1Cc1ccccc1)C(=O)c1ccccc1C2=O | 39.1 µM | 5.27 |
| C/C(=N\NC(=S)N(C)C)c1cccnn1 | > 100 µM | – |
| CC1(C)CC(=O)C2(CC(CSc3ccccc3)C(CS(=O)(=O)c3ccccc3)C2)C(=O)C1 (configuration not stated) | > 100 µM | – |
| COC(=O)CC(NC(=O)OCc1ccccc1)C(C(=O)OCc1ccccc1)C(C)(OC)OC (configuration not stated) | > 100 µM | – |
| COc1cccc(C=O)c1[O-].[O]=[U](=[O])([OH2+])[OH2+] | > 100 µM | – |
| c1ccc(/C(=N/Nc2ccncn2)c2ccccn2)cc1 | > 100 µM | – |
| C=C=C(CC(CC(=C)Br)(C(=O)OC)C(=O)OC)S(=O)(=O)c1ccccc1 | 26.9 µM | – |
| Cc1nc(Nc2ccccn2)sc1C(=O)/C=C/c1ccc(Cl)cc1 | > 100 µM | 0.633 |
| CC(=O)[O-].[Mn+3].[O-]c1ccccc1C=NCCNCCN=Cc1ccccc1[O-] | > 100 µM | > 100 |
| CCOc1c(N=Nc2ccccc2Cl)c(-c2ccccc2)nn1C(=S)S | > 100 µM | – |
| O=C(O)CCNCCCCNCCC(=O)O | > 100 µM | – |
| CCCCCC[C@H](C)Nc1nc2ccccc2c2occc12 | 27.4 µM | 12.6 |
| Cc1ccc(S(=O)(=O)Nn2c(O)c(C#N)c(-c3ccc(Cl)cc3)c(C#N)c2=O)cc1 | > 100 µM | – |
| COc1ccc(-c2nc(-c3nc4ccc(F)cc4[nH]3)c3ccccn23)cc1 | > 100 µM | 9.53 |
| CC(C)OP(=O)(OC(C)C)/C(N)=N/Nc1ccc([N+](=O)[O-])cc1 | > 100 µM | – |
| NNC(=O)C(=O)N/N=C1\CCC(=O)CC1C(=O)CCC(=O)Nc1ccc(Cl)cc1 (configuration not stated) | > 100 µM | – |

| Compound | TGI | GI50 [µM] |
| --- | --- | --- |
| Cc1nn2c(/C=C3/C(=O)Nc4cc(Cl)ccc43)c(-c3ccccc3)nc2s1 | > 100 µM | 3.84 |
| O=C(Cc1ccc(Cl)c(Cl)c1)NCC1(N2CCCCC2)CCCCC1 | > 100 µM | – |
| CC(C)=CCNc1nc(Cl)nc2nc[nH]c12 | 88.2 µM | – |
| Cc1cc(C)c2c(c1)C(=O)/C(=C/c1ccccc1C(=O)O)C2 | > 100 µM | – |
| CCOP(=O)(O)CN1CCNCCN(CP(=O)(O)OCC)CCNCC1 | > 100 µM | – |
| O=P1(S)OC[C@H]2O[C@@H]3[C@H](F)[C@@H]2OP(O)(=S)OC[C@H]2O[C@H]([C@H](F)[C@@H]2O1)n1cnc2c(ncnc21)NC/C=C/CNc1ncnc2c1ncn23 (some centres not stated) | > 100 µM | > 100 |
| Cc1nn(-c2ccccc2)c(C)c1/C=N/N=C1\S/C(=C\c2ccc(Cl)cc2)C(=O)N1c1ccccc1 | > 100 µM | – |
| O=C(Nc1ccccc1C(=O)NCc1ccccc1)/C(=C/c1ccccc1)NC(=O)c1ccccc1 | > 100 µM | – |
| Cc1ccc(S(=O)(=O)Nc2nnc(S(N)(=O)=O)s2)cc1 | > 100 µM | – |
| CN(C)CCSS(=O)(=O)O | > 100 µM | – |
| O=c1[nH]c2nc(NC3CCOCC3)ncc2cc1Oc1ccc(F)cc1F | > 25 µM | > 25 |
| C=C1C(=O)OC2CC(C)C3CC(O)OC(OCC)C3(C)CC12 (configuration not stated) | > 67.7 µM | – |
| Cn1cc(C2=C(c3cn(C)c4ccc(Cl)cc34)C(=O)NC2=O)c2ccccc21 | 21.7 µM | 6.61 |
| O=[N+]([O-])c1cccc(N=Nc2c(O)c(S(=O)(=O)O)cc3cc(S(=O)(=O)O)ccc23)c1 | > 100 µM | – |
| c1cncc(CNCc2cccnc2)c1 | > 100 µM | – |
| O=C1/C(=C/c2ccccc2)CN(C(=O)CCN2CCCC2)C/C1=C\c1ccccc1 | 7.02 µM | – |
| COc1ccc(C(=O)C(CC2C(=O)NC(=O)NC2=O)c2ccc(OC)cc2)cc1 (configuration not stated) | > 100 µM | – |
| OCc1ccc(-c2cscc2-c2ccc(CO)o2)o1 | 67.2 µM | 11.3 |
| c1ccc2c(-c3nc(-c4c[nH]c5ccncc45)cs3)c[nH]c2c1 | 5.38 µM | 2.05 |
| Nc1nc(Cl)cc(NC23CC4CC(CC(C4)C2)C3)n1 | > 100 µM | – |
| CC(C)(C)C(=CS(=O)/N=C/c1ccccc1)C(C)(C)C (configuration not stated) | > 100 µM | – |
| COc1ccc(C(=O)CC(c2ccccc2)[C@H]2C(c3ccc(OC)cc3)=Nc3c(nc(SC)n(C)c3=O)NC2c2ccccc2)cc1 (some centres not stated) | > 100 µM | – |
| COc1ccc(Nc2ccc3ccccc3c2-c2c(O)ccc3ccccc23)cc1 | 32.1 µM | – |
| O=C(CCN1CCN2c3ccccc3CCC2C1)c1ccc(F)cc1 (configuration not stated) | > 100 µM | – |
